Results: the supplement of paper PMC8728848
The other results are listed elsewhere or left out.

Legend:
Experiment in all cases: glycan array binding signal (z-score within array); higher = stronger binding
Details in all cases: glycan notation: IUPAC condensed, linker removed
[1] = target: Gal(b1-3)GlcNAc(b1-6)GalNAc
Outline: (§1)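 Negative Z-scores can be read as non-binding. The Z-score is calculated within each array and then averaged across arrays of one protein sequence at different concentrations or buffers and across linkers. Arrays, 3228 in all, were curated from the Consortium for Functional Glycomics database and kept only where the protein sequence was available.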

[2] = target: Gal(b1-3)GlcNAc(b1-6)[Gal(b1-3)]GalNAc
Outline: as §1

Gal(b1-3)GlcNAc6S = target: Gal(b1-3)GlcNAc6S
Outline: as §1

[3] = target: Gal(b1-3)[Fuc(a1-4)]GlcNAc
Outline: as §1

[4] = target: Gal(b1-3)[Fuc(a1-4)]GlcNAc(b1-2)Man
Outline: as §1

[5] = target: Gal(b1-3)[Fuc(a1-4)]GlcNAc(b1-2)Man(a1-3)[Gal(b1-3)[Fuc(a1-4)]GlcNAc(b1-2)Man(a1-6)]Man(b1-4)GlcNAc(b1-4)[Fuc(a1-6)]GlcNAc
Outline: as §1

[6] = target: Gal(b1-3)[Fuc(a1-4)]GlcNAc(b1-3)Gal(b1-3)[Fuc(a1-4)]GlcNAc
Outline: as §1

[7] = target: Gal(b1-3)[Fuc(a1-4)]GlcNAc(b1-3)Gal(b1-4)[Fuc(a1-3)]GlcNAc
Outline: as §1

[8] = target: Gal(b1-3)[Fuc(a1-4)]GlcNAc(b1-6)GalNAc
Outline: as §1

[9] = target: Gal(b1-3)[GlcNAc(b1-6)]GalNAc
Outline: as §1

[10] = target: Gal(b1-3)[Neu5Ac(a2-6)]GalNAc
Outline: as §1

[11] = target: Gal(b1-3)[Neu5Ac(a2-6)]GlcNAc(b1-4)Gal(b1-4)Glc
Outline: as §1

[12] = target: Gal(b1-3)[Neu5Ac(b2-6)]GalNAc
Outline: as §1

Gal(b1-4)Gal = target: Gal(b1-4)Gal
Outline: as §1

[13] = target: Gal(b1-4)GalNAc(a1-3)[Fuc(a1-2)]Gal(b1-4)GlcNAc
Outline: as §1

[14] = target: Gal(b1-4)GalNAc(b1-3)[Fuc(a1-2)]Gal(b1-4)GlcNAc
Outline: as §1

Gal(b1-4)Glc = target: Gal(b1-4)Glc
Outline: as §1

Gal(b1-4)Glc6S = target: Gal(b1-4)Glc6S
Outline: as §1

Gal(b1-4)GlcNAc = target: Gal(b1-4)GlcNAc
Outline: as §1

[15] = target: Gal(b1-4)GlcNAc(a1-6)Gal(b1-4)GlcNAc
Outline: as §1

Gal(b1-4)GlcNAc(b1-2)Man = target: Gal(b1-4)GlcNAc(b1-2)Man
Outline: as §1

[16] = target: Gal(b1-4)GlcNAc(b1-2)Man(a1-3)Man(b1-4)GlcNAc(b1-4)GlcNAc
Outline: as §1

[17] = target: Gal(b1-4)GlcNAc(b1-2)Man(a1-3)[Gal(b1-4)GlcNAc(b1-2)Man(a1-6)]Man(b1-4)GlcNAc(b1-4)GlcNAc
Outline: as §1

[18] = target: Gal(b1-4)GlcNAc(b1-2)Man(a1-3)[Gal(b1-4)GlcNAc(b1-2)Man(a1-6)]Man(b1-4)GlcNAc(b1-4)[Fuc(a1-6)]GlcNAc
Outline: as §1

[19] = target: Gal(b1-4)GlcNAc(b1-2)Man(a1-3)[Gal(b1-4)GlcNAc(b1-2)Man(a1-6)][Gal(b1-4)GlcNAc(b1-4)]Man(b1-4)GlcNAc(b1-4)[Fuc(a1-6)]GlcNAc
Outline: as §1

[20] = target: Gal(b1-4)GlcNAc(b1-2)Man(a1-3)[Gal(b1-4)GlcNAc(b1-2)Man(a1-6)][GlcNAc(b1-4)]Man(b1-4)GlcNAc(b1-4)[Fuc(a1-6)]GlcNAc
Outline: as §1

[21] = target: Gal(b1-4)GlcNAc(b1-2)Man(a1-3)[GlcNAc(b1-2)Man(a1-6)]Man(b1-4)GlcNAc(b1-4)GlcNAc
Outline: as §1

[22] = target: Gal(b1-4)GlcNAc(b1-2)Man(a1-3)[GlcNAc(b1-4)][Gal(b1-4)GlcNAc(b1-2)Man(a1-6)]Man(b1-4)GlcNAc(b1-4)GlcNAc
Outline: as §1

[23] = target: Gal(b1-4)GlcNAc(b1-2)Man(a1-3)[Man(a1-6)]Man(b1-4)GlcNAc(b1-4)GlcNAc
Outline: as §1

[24] = target: Gal(b1-4)GlcNAc(b1-2)Man(a1-6)Man(b1-4)GlcNAc(b1-4)GlcNAc
Outline: as §1

[25] = target: Gal(b1-4)GlcNAc(b1-2)Man(a1-6)[GlcNAc(b1-2)Man(a1-3)]Man(b1-4)GlcNAc(b1-4)GlcNAc
Outline: as §1

[26] = target: Gal(b1-4)GlcNAc(b1-2)Man(a1-6)[Man(a1-3)]Man(b1-4)GlcNAc(b1-4)GlcNAc
Outline: as §1

[27] = target: Gal(b1-4)GlcNAc(b1-2)[Gal(b1-4)GlcNAc(b1-4)]Man(a1-3)[Gal(b1-4)GlcNAc(b1-2)Man(a1-6)]Man(b1-4)GlcNAc(b1-4)GlcNAc
Outline: as §1

[28] = target: Gal(b1-4)GlcNAc(b1-2)[Gal(b1-4)GlcNAc(b1-4)]Man(a1-3)[Gal(b1-4)GlcNAc(b1-2)[Gal(b1-4)GlcNAc(b1-6)]Man(a1-6)]Man(b1-4)GlcNAc(b1-4)GlcNAc
Outline: as §1

[29] = target: Gal(b1-4)GlcNAc(b1-2)[Gal(b1-4)GlcNAc(b1-4)]Man(a1-3)[GlcNAc(b1-4)][Gal(b1-4)GlcNAc(b1-2)Man(a1-6)]Man(b1-4)GlcNAc(b1-4)GlcNAc
Outline: as §1

[30] = target: Gal(b1-4)GlcNAc(b1-2)[Gal(b1-4)GlcNAc(b1-4)]Man(a1-3)[GlcNAc(b1-4)][Gal(b1-4)GlcNAc(b1-2)[Gal(b1-4)GlcNAc(b1-6)]Man(a1-6)]Man(b1-4)GlcNAc(b1-4)GlcNAc
Outline: as §1

[31] = target: Gal(b1-4)GlcNAc(b1-2)[Gal(b1-4)GlcNAc(b1-6)]Man(a1-6)[Gal(b1-4)GlcNAc(b1-2)Man(a1-3)]Man(b1-4)GlcNAc(b1-4)GlcNAc
Outline: as §1

B1: SSP1 (Sclerotinia sclerotiorum), XP_001584968 (protein)
chain: MGSSHHHHHHSSGLVPRGSHMSLLTTELACTSAPDQVLHLFFQDGQNILEARSPDGGNVWTTQDTIIAKDGDYNGSSMTCYYVDKDANFDNQPSIHLLYMNKDKQLTEKVKRMKGDNPIWEDAKVPDEVRKGPEQYSKLTSGSFNQGTGWNPNGSQWAYFSASKDGKMGIVEIRRTPKDPWHTETILEEKWGDELPGTALACVIGNGKIRVFLQHHDYSIILYENQNNTWHDRGTFIPKDKVQATTPLACTMTKDGSVHLFYVSKSNKIIHCTDGKKEEELINFFPGSKLGATSVENKITLFFRNLNPVNEVGTLENENGSWKHGTTVIPA
glycan array binding signal (z-score) [1]: -0.244 | glycan array binding signal (z-score) [2]: -0.309 | glycan array binding signal (z-score) (Gal(b1-3)GlcNAc6S): 0.261 | glycan array binding signal (z-score) [3]: -0.31 | glycan array binding signal (z-score) [4]: -0.358 | glycan array binding signal (z-score) [5]: -0.08 | glycan array binding signal (z-score) [6]: -0.061 | glycan array binding signal (z-score) [7]: -0.417 | glycan array binding signal (z-score) [8]: 0.053 | glycan array binding signal (z-score) [9]: -0.142 | glycan array binding signal (z-score) [10]: -0.504 | glycan array binding signal (z-score) [11]: -0.303 | glycan array binding signal (z-score) [12]: -0.441 | glycan array binding signal (z-score) (Gal(b1-4)Gal): -0.262 | glycan array binding signal (z-score) [13]: -0.662 | glycan array binding signal (z-score) [14]: -0.139 | glycan array binding signal (z-score) (Gal(b1-4)Glc): -0.078 | glycan array binding signal (z-score) (Gal(b1-4)Glc6S): -0.189 | glycan array binding signal (z-score) (Gal(b1-4)GlcNAc): -0.446 | glycan array binding signal (z-score) [15]: -0.499 | glycan array binding signal (z-score) (Gal(b1-4)GlcNAc(b1-2)Man): 0.011 | glycan array binding signal (z-score) [16]: 0.145 | glycan array binding signal (z-score) [17]: -0.294 | glycan array binding signal (z-score) [18]: 0.031 | glycan array binding signal (z-score) [19]: 0.224 | glycan array binding signal (z-score) [20]: -0.567 | glycan array binding signal (z-score) [21]: -0.595 | glycan array binding signal (z-score) [22]: -0.649 | glycan array binding signal (z-score) [23]: -0.64 | glycan array binding signal (z-score) [24]: -0.14 | glycan array binding signal (z-score) [25]: 0.357 | glycan array binding signal (z-score) [26]: -0.48 | glycan array binding signal (z-score) [27]: -0.248 | glycan array binding signal (z-score) [28]: -0.276 | glycan array binding signal (z-score) [29]: -0.023 | glycan array binding signal (z-score) [30]: 0.427 | glycan array binding signal (z-score) [31]: 0.079
